Data from PubChem BioAssay AID686979 (National Center for Advancing Translational Sciences (NCATS), 2013).
Values joined by “and” are separate entries in the source; they are usually repeats but may differ in a detail not shown here. Equal entries are not always repeated. Hit rate of the full screen: of about 420,000 compounds, about 50,000 (12%) were called active. This list was built around the results that the source calls inconclusive (neither active nor inactive); the mix of calls is not that of the screen. Calls come from the whole dose curve; as a rule, active = well fitted inhibition curve with a large enough effect; inconclusive = small, poorly fitted or top-dose-only effect; inactive = flat fitted curve, though single readings scatter. A potency beside an inconclusive call is a rough fit, not a confirmed value.

Test: qHTS for Inhibitors of human tyrosyl-DNA phosphodiesterase 1 (TDP1): qHTS in cells in presence of CPT; note: nearly all actives have a fitted effect of over 55% in size
Details: chicken DT40 Tdp1-/-;hTDP1 cells + 20 nM CPT, ATP luminescence, 48 h; activity change, negative = growth inhibition: at 46.2 µM (top of the series) unless noted
Procedure, shortened: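 Cell growth measured by CellTiter-Glo luminescence after a minimum 48 h, 37 C compound exposure with 20 nM CPT in Tdp1-knockout DT40 cells stably expressing hTDP1, seeded 400/well; qHTS titration format.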
% is set by controls: 0 for no effect and ±100 for the full control effect; potency is the fitted concentration of half-maximal effect; tags give direction and shape of the fitted curve.

SMILES | Potency | activity change, negative = growth inhibition
O=C(Cc1ccc(-c2ccccc2)cc1)NCCS(=O)(=O)N1CCN(c2cccc(Cl)c2)CC1 | inconclusive: 29.1 µM [inhibitor, single point] | –
CC(C)COc1ccc(C(=O)N/C(=C\c2cccc([N+](=O)[O-])c2)C(=O)OC(C)C)cc1 | inconclusive: 32.6 µM [inhibitor, single point] | –
CCOc1ncccc1C(=O)OCC(=O)NCCCc1ccccc1 | inactive | –
Cc1nc(Cl)sc1C(=O)Nc1cc(F)cc(F)c1 | inconclusive: 18.4 µM [inhibitor, single point] | –
O=C1C=C(c2cc3ccccc3s2)C[C@@H](c2ccc(F)cc2)C1 | inconclusive: 29.1 µM [inhibitor, single point] | –
CCOc1ccc(CN(C)CC(=O)Nc2ccc3c(c2)CCC3)cc1OC | inconclusive: 29.1 µM [inhibitor, single point] | –
COc1ccccc1C(=O)C1CCCN(C(=O)c2ccccc2Cl)C1 (stereo not given) | inconclusive: 29.1 µM [inhibitor, single point] | –
Cc1cccc(NC(=S)NC2CC3CCCC(C2)N3CC(C)C)c1 (stereo not given) | inconclusive: 29.1 µM [inhibitor, single point] | –
CN(CCO)C(=O)c1cn(C2CCN(Cc3ccc(C(F)(F)F)cc3)CC2)nn1 | inactive | –
CCc1ccc(OCC(=O)NC(NC(=S)Nc2ccc(C)cc2C)C(Cl)(Cl)Cl)cc1 (stereo not given) | inconclusive: 25.9 µM [inhibitor, single point] | –
CCn1cc(/C=C(\NC(=O)c2ccccc2)C(=O)NCCN2CCOCC2)c2ccccc21 | inconclusive: 23.1 µM [inhibitor, single point] | –
CCCCCCCCCCCC(=O)N/N=C/c1ccco1 | inconclusive: 29.1 µM [inhibitor, single point] | –
CC(=O)Nc1ccc(OCC(O)CN2CCN(c3ccc(Cl)cc3)CC2)cc1 (stereo not given) | inactive | –
COc1ccccc1-n1cc(-c2ccccc2)c2c(=S)nc[nH]c21 | inactive | –
CS(=O)(=O)c1ncc(Cl)c(C(=O)N2CCN(c3cccc(Cl)c3)CC2)n1 | active: 1.03 µM | –
O=C1CC(c2ccccc2)CC(O)=C1C=Nc1ccccc1Cl (stereo not given) | inconclusive: 18.4 µM [inhibitor, partial curve] | –
CCN(CC)c1ccc(-c2sc(Nc3ccccc3)n[n+]2-c2ccc(F)cc2)cc1 | inconclusive: 29.1 µM [inhibitor, single point] | –
CC(C)c1ccc(C2c3[nH]c4ccccc4c3C[C@H]3C(=O)N(c4ccccc4C(=O)N4CCC(C(=O)O)CC4)C(=O)N23)cc1 (stereo not given in full) | inconclusive: 20.6 µM [inhibitor, single point] | –
Cc1cc(C(=O)CSc2nc(N)cc(=O)[nH]2)c(C)n1Cc1ccco1 | inconclusive: 7.31 µM [inhibitor, partial curve, poor fit] | –
CCCCCCCCCCCCCCCC(=O)OC[C@@H](NC(=O)C(Cl)Cl)[C@H](O)c1ccc([N+](=O)[O-])cc1 | inactive | –
O=C(NC(=S)N1CCCCCC1)c1ccc(Cl)cc1Cl | inconclusive: 18.4 µM [inhibitor, single point] | –
O=C(NC1CCSc2ccccc21)c1cccc(Br)c1 (stereo not given) | – | inconclusive: -32% [inhibitor]
COc1ccc(C(=O)c2cc([N+](=O)[O-])ccc2N2CCN(C)CC2)cc1 | active: 2.59 µM | –
Cc1oc2ncn(CC(C)C)c(=O)c2c1C(=O)NCc1cccc(Cl)c1 | active: 16.4 µM | –

SMILES | Potency | activity change, negative = growth inhibition
NC(=O)c1ccc(NC(=O)Cn2c(=O)n(-c3ccccc3)c(=O)c3oc4ccccc4c32)cc1 | inconclusive: 16.4 µM [inhibitor, partial curve, poor fit] | –
Cc1ccc(/C(N)=N/OC(=O)COc2ccc(Cl)c(C)c2)cc1 | inactive | –
O=C(N/N=C/C(Cl)=C/c1ccccc1)c1ccccc1F | inconclusive: 29.1 µM [inhibitor, single point] | –
CN(C)CCOCCOc1ccccc1-c1ccccc1 | inconclusive: 8.2 µM [inhibitor, partial curve] | –
CCC(C)[C@@H](C(=O)Nc1ccc(OC)c(OC)c1)N1Cc2ccccc2C1=O (stereo not given in full) | inactive | –
Fc1cccc(Cl)c1CN1CCN(c2nc3ccccc3s2)CC1 | inactive | –
C=CCSc1nc2c(c(=O)[nH]c(=O)n2C)n1C(C)C | inactive | –
CCOC(=O)CSc1nc2sc3c(c2c(=O)n1-c1ccccc1)CCN(C)C3 | inconclusive: 29.1 µM [inhibitor, single point] | –
Cc1cccc2cc(CN(Cc3ccco3)C(=O)c3cccs3)c(=O)[nH]c12 | inconclusive: 23.1 µM [inhibitor, single point] | –
CCOC(=O)c1nn(-c2ccccc2C)c2nc(-c3ccc(C)cc3)c(C#N)c(=O)n12 | – | inconclusive: -34.7% [inhibitor]
[N-]=[N+]=NCC1OC(n2cnc3c(=O)[nH]c(N)nc32)C(O)C1O (stereo not given) | inactive | –
Cc1ccc2c(c1)C1CN(C)CCC1N2S(=O)(=O)c1cccc(C(F)(F)F)c1 (stereo not given) | inconclusive: 29.1 µM [inhibitor, single point] | –
COCCNc1ncnc2ccc(-c3ccccc3CN(C)C)cc12 | inactive | –
COc1ccc(N2CC(C(=O)Nc3nc4ccc(F)cc4s3)CC2=O)c(OC)c1 (stereo not given) | inconclusive: 16.4 µM [inhibitor, single point] | –
COc1cc(CC(=O)OCn2nnc3ccccc3c2=O)cc(OC)c1OC | inactive | –
Cc1ccc(Cn2c(C(=O)Nc3ccc(Cl)cc3)cc3sccc32)cc1 | inconclusive: 23.1 µM [inhibitor, single point] | –
CCCN1CNc2c(c(=O)[nH]c(=S)n2CCC(C)(C)C)C1 | inconclusive: 31.6 µM [inhibitor, single point] | –
NC(N)=Nc1ccc(Cl)cc1 | inconclusive: 29.9 µM [inhibitor, single point] | –
CCc1ccccc1OCc1nc2ccc(S(=O)(=O)N3CCOCC3)cc2[nH]1 | active: 23.1 µM | –
O=c1c2ccccc2c(C=Nc2ccc(O)cc2)c(O)n1-c1nccs1 | inconclusive: 16.4 µM [inhibitor, single point] | –
COc1ccc(/C=C2\CCn3c2nc2cc(C(=O)O)ccc2c3=O)cc1O | inactive | –
Cc1cc(CNC(=O)c2cnn(-c3nccc(-c4ccc5c(c4)OCO5)n3)c2C2CC2)on1 | inconclusive: 16.4 µM [inhibitor, single point] | –
CC(C)Oc1ccc(CNC(=O)c2cc3cccc4c3n2CC(C)S4)cc1 (stereo not given) | inconclusive: 16.4 µM [inhibitor, single point] | –
COC(CSc1nc(N)c2c3c(sc2n1)CN(C)CC3)OC | inactive | –

SMILES | Potency | activity change, negative = growth inhibition
O=c1oc2c3c4c(cc2s1)CCCN4CCC3 | inactive | –
COc1ccc(NS(=O)(=O)c2ccc(O)c(C(=O)OCC(=O)NC(C)C3CC4CCC3C4)c2)cc1 (stereo not given) | inactive | –
COCC1CCCCN1C(=O)c1cc(COc2ccc3ncccc3c2)on1 (stereo not given) | active: 1.16 µM | –
COc1cc(Cl)c(C)cc1NC(=O)CNC(=O)Cn1ccc2ccccc2c1=O | inactive | –
COc1ccc(CC(=O)N2CCN(c3ccccn3)CC2)cc1 | inactive | –
COc1ccc(Cl)cc1NC(=O)c1ccc(CN2C(=O)CCn3nc(C)cc32)cc1 | inconclusive: 20.6 µM [inhibitor, single point] | –
CC(C)(C)OC(=O)N(CCc1ccccc1)Cc1ccccc1OCc1ccc(NC(=O)C2CCCC2)cc1 | inconclusive: 29.1 µM [inhibitor, single point] | –
COC(=O)c1c(NC(=O)C2c3ccccc3Oc3ccccc32)sc(C)c1C | active: 23.1 µM | –
Cc1nc(N(C)Cc2ccccc2)c2c(C)c(C)sc2n1 | – | inconclusive: -34.3% [inhibitor]
CC(C)Cc1n[nH]c(=O)c2c1nnn2Cc1ccccc1F | inactive | –
O=C(O)c1cccc(N2C(=O)c3cc([N+](=O)[O-])cc4cc([N+](=O)[O-])cc(c34)C2=O)c1 | – | inconclusive: -41.1% [inhibitor]
COC(=O)C1N[C@@H]([C@@H](NC(=O)COc2ccccc2)C(=O)NCc2ccc(OC)cc2)SC1(C)C (stereo not given in full) | inactive and inconclusive: 35.5 µM [inhibitor, single point] | –
Cc1ccc(-c2csc(N(CCCN3CCOCC3)C(=O)c3ccco3)n2)cc1 | inconclusive: 23.1 µM [inhibitor, single point] | –
Brc1cccc(-c2nc3ccc(Br)cn3c2Cc2ccccc2)c1 | inconclusive: 29.1 µM [inhibitor, single point] | –
CC(C)Cn1cc(NC(=O)NCc2ccc(Cl)cc2)c2ccccc2c1=O | inconclusive: 29.1 µM [inhibitor, single point] | –
CCC(=O)N1c2ccccc2CC1C(=O)NCCCN1CCN(c2cccc(Cl)c2)CC1 (stereo not given) | inconclusive: 25.9 µM [inhibitor, single point] | –
COc1ccc(C2c3c(n(C)c4ccccc34)C(=O)N2CC(=O)Nc2c(C)cc(C)cc2C)cc1 (stereo not given) | inconclusive: 29.1 µM [inhibitor, single point] | –
Cn1nc(-c2ccc(N3CCCCC3)c(NC(=O)c3ccco3)c2)c2ccccc2c1=O | active: 20.6 µM | –
COc1cc2c(cc1OC)C(COc1ccc3c(C)cc(=O)oc3c1)N(C(=O)c1ccc(C)cc1)CC2 (stereo not given) | inconclusive: 23.1 µM [inhibitor, single point] | –
CC(=O)Nc1cccc(C(=O)/C=C/c2ccc(F)cc2)c1 | active: 2.31 µM | –
CN(C)c1c(F)cc(C(=O)NCc2ccccc2)cc1F | inactive | –
CCOC(=O)N1CCC(NC(=O)c2ccc3c(c2)N(Cc2ccccc2)C(=O)c2ccccc2S3(=O)=O)CC1 | inconclusive: 6.51 µM [inhibitor, single point] | –
